Sequences and labels used below:
T1: UNK ZnF1-3 (human, UniProt Q9C0B0 31-174)
T1 sequence: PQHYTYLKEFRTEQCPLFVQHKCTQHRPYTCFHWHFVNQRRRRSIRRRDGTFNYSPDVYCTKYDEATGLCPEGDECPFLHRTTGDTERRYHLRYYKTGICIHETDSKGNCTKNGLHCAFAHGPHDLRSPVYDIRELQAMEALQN

B1: chr13:111857651:111857652:+_ENSG00000102606_ENST00000375736|hu_hu|motif|central (ssRNA)
RNA: GGGAGUUCUACAGUCCGACGAUCGCACACACGGAGUCACUCCCCAGCCCGAUGUCUGCUGUUACUUUAUUUAGAGUCACGGAGGAACUGAGGACCUUGUUAAAAUUCUGCCCCUGAUACAAAUCAUUUGCAUCAAACGUCUCCCAACAGAGGAUUGAGCAUCA
B2: chr7:7679991:7679992:-_ENSG00000106399_ENST00000396682|hu_hu|hu_hu_hu_mus_False|28_28 (ssRNA)
RNA: GGGAGUUCUACAGUCCGACGAUCUGGGAUGAAUCUUUUCCAGCUUCCCCACGAAGCACACGGGCCGGUCGAUAUACUGUGGUAACAUGCUGGCGUUGACGCGCGCUCUGGGCAAGUGCAUUAUGUCCUCCAUGAUUCUGCCGCCAACAGAGGAUUGAGCAUCA
B3: chr1:163116782:163116783:-_ENSG00000143248_ENST00000313961|hu_hu|motif|central (ssRNA)
RNA: GGGAGUUCUACAGUCCGACGAUCUUGAAAUAGGUCUGUCCACACUUAAUAUUCUUUUUUAGACCAAUUUAGCUGGAAAUCGGUUACUUAACCCACAUUCAUUGAUAUCAUAGUCUUGUCUUAUAUUUCUUUGCCUUAGGCAGGCAACAGAGGAUUGAGCAUCA
B4: 58102446_58102566_1542_3pUTR_ENSG00000171649_ENST00000597850|human|control|control (ssRNA)
RNA: GGGAGUUCUACAGUCCGACGAUCAAGGCCUUUCUCCAGUGUGAACCACUUGGUGUUGAAUGAGACCAGACUUUUGGCUAAAGGACUUUCCACACUGGCCACACUCAUAAGGCCUUGCUCCAGUAUGAAUUCUCCGGUGUUGAACAACAGAGGAUUGAGCAUCA
B5: chr10:94963105:94963106:-_ENSMUSG00000062981_ENSMUST00000075829|mus_hu|motif|central (ssRNA)
RNA: GGGAGUUCUACAGUCCGACGAUCUUAUCAAGUGGUAUGAAAAAAGAUGUUCUGAAGAGAAACUGCUUUUAGAAUCUGCUUCGGAGCAUACCAAUUUCUACUCCUGCUUGACGGCUUCUCACCACGAACCCGCCAUCUUGUUUCCAACAGAGGAUUGAGCAUCA
B6: chr3:176740097:176740098:-_ENSG00000177565_ENST00000430069|hu_mus|hu_hu_hu_mus_True|18_28 (ssRNA)
RNA: GGGAGUUCUACAGUCCGACGAUCUGUUUUGUAUACCACAAAAGGAGGCACUUUCAGUAUCUGCAAAAGGUGUUUAGUCCUAAAACAUACUCACCUAGAGGAUAACUAAAACAGAAUUCAAUACAAUCUCUAAGACCUACUCCACAACAGAGGAUUGAGCAUCA
B7: chr14:102349618:102349619:+_ENSG00000078304_ENST00000445439|hu_hu|motif|central (ssRNA)
RNA: GGGAGUUCUACAGUCCGACGAUCUACAAACUUCUGAUCAAUAUAUUUCUUCGCUAUAUUAGGUUGGAAAUCUGGAGACUCGGAAAAUCUUAAGAAAAAUUCAUAAACAAGCUGUAGAUGAGGCCAGGCUGCUUCUAACGUUGGCAACAGAGGAUUGAGCAUCA
B8: chr17:30356047:30356048:-_ENSMUSG00000062202_ENSMUST00000168787|mus_mus|motif|central (ssRNA)
RNA: GGGAGUUCUACAGUCCGACGAUCUAUUGCUUGCUAGAGACACUGGCAACUCCAGGCUGGAUGCUGCCCCACACACAAUAGCGGCACGCUGGCUACAUCCAUGGAAACCUCCCUACCAAAGGCAGCCACACCACACAGCAAAAUCAACAGAGGAUUGAGCAUCA
B9: chr8:29963340:29963341:+_ENSG00000104660_ENST00000321250|hu_hu|FALSE|FALSE (ssRNA)
RNA: GGGAGUUCUACAGUCCGACGAUCUUUUCACCACUGCUGCCAGCUGAAGUCGUCAUUGCUUCCAAAGACCAAGAAAAAGCCUAGUAUAGUUGCAAAGAUGACUGUGUUUCCUGUGAGAACAAGUGCACAAGCUCCCCACUCAAUCAACAGAGGAUUGAGCAUCA
B10: chr5:31546141:31546142:+_ENSMUSG00000029148_ENSMUST00000031034|mus_mus|FALSE|FALSE (ssRNA)
RNA: GGGAGUUCUACAGUCCGACGAUCUCUGAGCCACUGCUGACUACUGUUUGGGACUCCCCUUCCGACAUGCUGGAAUGAACACUCAGCCUCCCGACUCCGCGCCCGCAGCCUGCGCUUCAGCUCCAGCUCGGGUUCCGGGGCCUCCAACAGAGGAUUGAGCAUCA
B11: chr1:111986530:111986531:-_ENSG00000116455_ENST00000235090|hu_hu|FALSE|FALSE (ssRNA)
RNA: GGGAGUUCUACAGUCCGACGAUCACUGCAGCCAAUCUGUGAUGCUGGCUUGGGACAGCGGGUAUCCCAGAGUAAAAUUCUAUUGUCCUCGCUGCAUGAAAGAAACACAGAGUCCUUGUGAGGAGAGGCAGCAACACAAGUGACCAACAGAGGAUUGAGCAUCA
B12: chr1:58468927:58468928:-_ENSMUSG00000026034_ENSMUST00000148330|mus_mus|mus_mus_mus_hu_False|8_58 (ssRNA)
RNA: GGGAGUUCUACAGUCCGACGAUCAAUUACUGAAAAAGAUGUUCAUUACCUUAGCUAUGUACUUAAUGAACCAAAUUAUCUAAAAAAAAUAAACAUGGCAAUAUAAAAAUGUUAAGAAUUUACAAAGAUUAAAAGCUUAACUUACAACAGAGGAUUGAGCAUCA
B13: chr2:65860617:65860618:+_ENSMUSG00000044647_ENSMUST00000122912|mus_mus|motif|central (ssRNA)
RNA: GGGAGUUCUACAGUCCGACGAUCGAGCUGGCUAGGAGUUCCUGGGAUGUGACUAUCUAUUUGGUAGUAGAGAGUUGAAGAGCGGGCGUAAAAUGAAGCAUUUUUUGUGUGGCUUUCAUGAACUGCGGUGCCAUCAGAGUAACACAACAGAGGAUUGAGCAUCA
B14: chr6:38652254:38652255:-_ENSG00000124767_ENST00000373365|hu_hu|hu_hu_hu_mus_False|48_108 (ssRNA)
RNA: GGGAGUUCUACAGUCCGACGAUCCGAAAACUUCAUAGCAGGGAAGUCAAGCUUCUGCAGGAGGGUCAGUCCAAGAACCCUCGUAUAAAAAUCCAGUGACUUCUUAGGAUCCUUAAUUCUUAGCAUCGUUUGCUGCAGUAGAAACAACAGAGGAUUGAGCAUCA
B15: chr7:86439405:86439406:+_ENSMUSG00000039202_ENSMUST00000037315|mus_hu|FALSE|FALSE (ssRNA)
RNA: GGGAGUUCUACAGUCCGACGAUCUUCCUUGAAGAGUUGUACAGUUGGGCCGGUCAGGUCAGAUCUCUUAUUCAAACAAACCUAAAAGCUGCGUGUGAUUGACUACAGGUGCUCAGCUCGCCCCCAGUCUGGUUCCUGCAGCUCCAACAGAGGAUUGAGCAUCA
B16: chr5:128440902:128440903:+_ENSG00000066583_ENST00000173527|hu_mus|hu_hu_hu_mus_True|68_98 (ssRNA)
RNA: GGGAGUUCUACAGUCCGACGAUCUUGAACGGUGCUGCCAAGACCUUUGGGGUAUUGUUCCGUUAUGAUAACAGGAAUCCCUAAGAUCCGAGCUCCUUGCAACAGUCUCUGUCCCACACUAAUGAUGUCCCCAAAGUAUUUGAUCAACAGAGGAUUGAGCAUCA
B17: chr17:34051329:34051330:+_ENSG00000006125_ENST00000262325|hu_hu|FALSE|FALSE (ssRNA)
RNA: GGGAGUUCUACAGUCCGACGAUCAAUCAAAUGAGAUUAUAAUAUGGAAAGGGGGAAGCAUGAAGGCUUGGCCAAGGAAAAGGAGUUUGGAGGGGAAAAAAAGAAAAAAGCAAACUGAAAAUCCAAAUGACCAGGGAUAAGGCUCAACAGAGGAUUGAGCAUCA
B18: chr22:19452774:19452775:-_ENSG00000070010_ENST00000399523|hu_hu|hu_hu_hu_mus_False|28_68 (ssRNA)
RNA: GGGAGUUCUACAGUCCGACGAUCCUUCUCAUUGUAGUUGAUAGCAAUCACAUCUCCAGUCGUCAGACAGGCAAAGUUUCUCAAUGCAUUUUCUAAUACCGCUUUAGGGUUGGUGAUAUCCAGGAAGUCUGGGCUCUGAGGCUGCAACAGAGGAUUGAGCAUCA
B19: chr2:91460361:91460362:+_ENSMUSG00000040549_ENSMUST00000099716|mus_mus|motif|central (ssRNA)
RNA: GGGAGUUCUACAGUCCGACGAUCUGUGUACAAUGGCCUGCAGCGGCCGCUUCACACUACAGGGCUUCUAGAUCAGUAACGGAAGCUGCAGAGUGCCGAGGGUGGGCAGCUUCAUUUGCGACUGCUCUUUAUUCUCUCCAGUCUCAACAGAGGAUUGAGCAUCA
B20: chr4:120564322:120564323:+_ENSMUSG00000032890_ENSMUST00000071093|mus_mus|motif|central (ssRNA)
RNA: GGGAGUUCUACAGUCCGACGAUCAAGUGUCCAUACGAUGCUCCUUUGGGUUCUUUCCAGCAAGAUACAGAGAUGUGGACGGUAUAGUCCAUGUGAUCACCAGGACUGAUUGUACACAGACAAAUGGACAAAUAUGUGGACACACAACAGAGGAUUGAGCAUCA
B21: chr11:134021440:134021441:+_ENSG00000166086_ENST00000529443|hu_hu|motif|central (ssRNA)
RNA: GGGAGUUCUACAGUCCGACGAUCAUUCAUAUCUUAAAAUACACGAGUAUUCCUUUUCCGUCUAGUCUCAGUUAUAGGCAGCGGCUUCCCAGACUCUACUUUCACUUCUCUCUACUUUUUCAGACCUGGUUCCCAUGGCACUAGCAACAGAGGAUUGAGCAUCA
B22: chr6:30401018:30401019:+_ENSMUSG00000029775_ENSMUST00000068259|mus_mus|FALSE|FALSE (ssRNA)
RNA: GGGAGUUCUACAGUCCGACGAUCAUGAUAUUUUAAUCUGUAGUGUUAGUUGACAUGGUCAAUAUGCUCAGAAUUAAAAAAAAAAGGCAACAAUUUCUCUCUCUUGAUUCUUAACAUUAUUAAGGGACUUUCAGACAUUCCCUCCAACAGAGGAUUGAGCAUCA

This is one part of the list.

This experiment has as its target T1, UNK ZnF1-3. Kind of experiment: nsRBNS (natural sequence RNA bind-n-seq); RBNS binding buffer (assumed for nsRBNS): 25 mM Tris pH 7.5, 150 mM KCl, 3 mM MgCl2, 0.01% Triton X-100, 500 ug/ml BSA, 20 U/ml SUPERase-In, 4 C; UNK is unkempt and MSI1 is Musashi-1; names of the RNAs are library labels; protein concentration not given here; high values mean tight binding.
B1 displayed a binding signal of 1.49 enrichment R.

In turn, B2 yielded a binding signal of 0.66 enrichment R. Take B3: the binding signal is 0.503 enrichment R. To B4 belongs 0.463 enrichment R; to B5, 0.476 enrichment R; to B6, 0.646 enrichment R. To B7 belongs 1.79 enrichment R; to B8, 1.31 enrichment R; to B9, 1.3 enrichment R. Take B10: the binding signal is 0.504 enrichment R. To B11 belongs 1.97 enrichment R. To B12 belongs 2.18 enrichment R; to B13, 1.11 enrichment R.

In turn, B14 gave a binding signal of 0.957 enrichment R.

Take B15: the binding signal came to 1.23 enrichment R.

Regarding B16, the binding signal worked out at 0.665 enrichment R. To B17 belongs 2.51 enrichment R; to B18, 0.979 enrichment R. To B19 belongs 0.76 enrichment R; to B20, 1.31 enrichment R. Molecule B21 yielded a binding signal of 0.552 enrichment R. To B22 belongs 1.07 enrichment R.

The values above are taken from article PMC12136788.
